Results taken from PubChem BioAssay AID504832 (National Center for Advancing Translational Sciences (NCATS), 2011).
Hit rate of the full screen: of about 310,000 compounds, about 18,000 (5.8%) were called active. The shares of active, inactive and inconclusive entries below differ from those in the screen. Calls follow the shape of the dose curve; as a rule, active = well fitted inhibition curve with a large enough effect; inconclusive = small, poorly fitted or top-dose-only effect, or another doubt; inactive = no such curve, though single readings can be large or run the other way. No potency is given beside an inconclusive call; the fits are too rough.

assay: Primary qHTS for delayed death inhibitors of the malarial parasite plastid, 48 hour incubation; conditions: P. falciparum luciferase growth in erythrocytes; series mostly up to 28.7 µM; activity change, negative = inhibition: at the top concentration
In short: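 Read-out is firefly luciferase luminescence from an integrated reporter in P. falciparum, so falling signal marks reduced parasite growth. Infected erythrocytes were at 2% hematocrit and 0.1% parasitemia (final) in Albumax-supplemented RPMI 1640.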
% is scaled to controls: 0 for no effect and ±100 for the full control effect; potency is read from the fitted curve at half-maximal effect; tags tell the direction and shape of the fitted curve.

Row | SMILES | Potency | activity change, negative = inhibition
1 | O=C(CSC1CN(C(c2ccccc2)c2ccccc2)C1)N/N=C/c1ccccc1 | inconclusive [inhibitor, partial curve] | 
2 | O=C(CCCSc1nnc(Nc2ccccc2F)s1)N1CCOCC1 | inconclusive [inhibitor, single point] | 
3 | CCn1cc([N+](=O)[O-])c(C(=O)N2N=C(c3cccc4ccccc34)CC2c2ccccc2O)n1 (stereo not given) | active: 9.28 µM | 
4 | COc1ccc(NC(=O)CN(C)C(=O)c2cc(-c3ccc(OC)cc3)nc3ccccc23)cc1 | active: 9.28 µM | 
5 | CCOc1ccc(OCC)c(NC(=O)CN2CCN(c3cccc(C)c3C)CC2)c1 | inconclusive [inhibitor, single point] | 
6 | CCNC(=S)N(Cc1ccc2c(c1)OCO2)C1CC(=O)N(c2ccc(F)cc2)C1=O (stereo not given) | active: 9.28 µM | 
7 | CCOc1ccc(N(CC(=O)N/N=C/c2cccnc2)S(C)(=O)=O)cc1 |  | inactive: -0.261%
8 | Cc1cccc(C(=O)Nc2ccnc(-c3ccncc3)n2)c1 | inconclusive [inhibitor, single point] | 
9 | O=C(Cc1cccc(NC(=O)C2CCN(C(=O)C3CCC3)CC2)c1)Nc1cccc(C(=O)N2CCCC2)c1 | inconclusive [inhibitor, single point] | 
10 | Cc1c(-c2nc(-c3ccc(C(C)(C)C)cc3)no2)n(C)oc1=O |  | inactive: -72.6%
11 | Cc1ccc(C)c(N2CCN(C(=S)Nc3ccc4nc(N5CCOCC5)cc(C)c4c3)CC2)c1 | inconclusive [inhibitor, partial curve] | 
12 | O=C(CNC(=O)c1ccccn1)N=Nc1c(O)[nH]c2ccccc12 | inconclusive [inhibitor, partial curve, poor fit] | 
13 | CCn1c(COc2ccccc2)nnc1SCC(=O)NC1CC1 | inconclusive [inhibitor, full curve, poor fit] | 
14 | Cc1nn(-c2ccccc2)c(C)c1/C=N/NC(=O)c1cc(C(C)(C)C)[nH]n1 | inconclusive [inhibitor, single point] | 
15 | OCCN1CCN(c2cc(C(F)(F)F)nc3ccccc23)CC1 | active: 11.7 µM | 
16 | COc1ccc(-n2c(SCC(=O)N(C)c3ccccc3)nc3c([nH]c4ccccc43)c2=O)cc1OC | active: 8.28 µM | 
17 | O=C(Nc1ccccc1F)N(CCCN1CCOCC1)Cc1cc2cc3c(cc2[nH]c1=O)OCCO3 | inconclusive [inhibitor, partial curve, poor fit] | 
18 | COc1ccc(CC(=O)Nc2nc(-c3cccc([N+](=O)[O-])c3)cs2)cc1 |  | inactive: 0.234%
19 | O=[N+]([O-])c1ccccc1/C=C/C=N/Nc1ccc(S(=O)(=O)Nc2ccc(Cl)cc2)cc1[N+](=O)[O-] | active: 11.7 µM | 
20 | CCN(CC)C(=O)c1ccccc1NC(=O)CN1C(=O)c2ccccc2S1(=O)=O |  | inactive: 23.7%
21 | COc1ccc(S(=O)(=O)N2CCOCC2)cc1NC(=O)CCNC(=O)c1ccc(Cl)cc1 | inconclusive [inhibitor, single point] | 
22 | COc1nc(NC(C)(C)C)nc(Oc2ccc(=O)n(-c3ccccc3)n2)n1 | inconclusive [inhibitor, partial curve] | 
23 | CCN=C(NCC)SC1CC(=O)N(c2cccc(OCC)c2)C1=O (stereo not given) |  | inactive: -4.79%
24 | O=S(=O)(/N=C(\c1ccccc1F)N1CCCCC1)c1ccccc1 |  | inactive: -22.4%

Row | SMILES | Potency | activity change, negative = inhibition
25 | O=C(O)C1C2CCC(O2)C1C(=O)Nc1ccc(Cl)cc1 (stereo not given) |  | inactive: -4.4%
26 | CCOC(=O)c1c(C2COc3ccccc3O2)csc1NC(=O)c1ccco1 (stereo not given) | inconclusive [inhibitor, single point] | 
27 | O=C(C1CCCCC1)N1CCCn2c1nc1ccccc12 | inconclusive [inhibitor, full curve, poor fit] | 
28 | COC(=O)C1(C)NC(c2ccc(O)cc2)C2C(=O)N(c3ccc(F)cc3)C(=O)C21 (stereo not given) |  | inactive: -12.4%
29 | O=S(=O)(c1ccccc1)N1N=C(c2ccccc2)CC1c1ccccc1 (stereo not given) | inconclusive [inhibitor, partial curve, poor fit] | 
30 | Cc1ccc(C2Nc3ccc4ccccc4c3C3=C2C(=O)CC(C)(C)C3)o1 (stereo not given) | active: 14.7 µM | 
31 | O=C(NC1CCCCCC1)C1CCN(c2nc3ccccc3o2)CC1 | inconclusive [inhibitor, full curve, poor fit] | 
32 | CCOC(=O)C1CCN(c2c(NCCN3CCN(c4ccccc4)CC3)c(=O)c2=O)CC1 |  | inactive: -13%
33 | COc1ccc(-c2cc(C(=O)NC3=NCCS3)c3ccccc3n2)cc1OC |  | inactive: -9.43%
34 | CCCN(CCC)CCSc1nc(O)c(C(C)C)c(=O)[nH]1 | inconclusive [inhibitor, single point] | 
35 | CC1CC(C)(C)CC2(C1)NC(=O)N(CC(=O)Nc1c(F)cccc1F)C2=O (stereo not given) |  | inactive: -12.2%
36 | Cc1ccc(C(=O)NC2CC2)cc1S(=O)(=O)N1CCOCC1 | inconclusive [inhibitor, single point] | 
37 | CCOc1ccccc1-n1c(SCC(=O)Nc2ccccc2C(=O)O)nc2ccccc2c1=O | inconclusive [inhibitor, partial curve, poor fit] | 
38 | O=C(c1cc(COc2ccc(F)cc2Cl)on1)N(Cc1ccncc1)CC1CCCO1 (stereo not given) | inconclusive [inhibitor, single point] | 
39 | COc1ccc(Oc2ccc(C(F)(F)F)cc2NC(=O)c2ccc(OC)cc2)cc1 | inconclusive [inhibitor, partial curve, poor fit] | 
40 | CCN(CC(=O)Nc1c(Cl)cccc1Cl)C(=O)C1CCN(c2ncnc3sc(C)c(C)c23)CC1 | inconclusive [inhibitor, single point] | 
41 | CC(=O)N1CCSc2ccc(S(=O)(=O)Nc3cccc(C)c3)cc21 |  | inactive: -8.54%
42 | COc1cc(/C=C2/SC(=Nc3ccc(O)cc3)NC2=O)cc(OC)c1O | active: 3.7 µM | 
43 | Cc1cc(S(=O)(=O)NCCCn2ccnc2)c(C)cc1Cl | inconclusive [inhibitor, partial curve, poor fit] | 
44 | C/C(=N\N(C)C)c1ccc(OCCOc2ccc([N+](=O)[O-])cc2)cc1 |  | inactive: 16.6%
45 | O=C(NCCCN1CCOCC1)c1cccc(NS(=O)(=O)c2ccc(Br)cc2)c1 | inconclusive [inhibitor, full curve, poor fit] | 
46 | COc1cc(CN2CCNC(=O)C2CC(=O)NC2CCCC2)cc(OC)c1 (stereo not given) |  | inactive: -25.5%
47 | CCOC(=O)c1ccc(N2C(=O)[C@@H](c3ccccc3)[C@H]2c2ccccc2)cc1 | active: 10.4 µM | 
48 | Cc1cc(C(=O)N/N=C/C=C/c2cccc([N+](=O)[O-])c2)n[nH]1 |  | inactive: -7.51%

Row | SMILES | Potency | activity change, negative = inhibition
49 | CCC1CN(C(=O)N2CCC(C(=O)Nc3ccccc3OC)CC2)c2ccccc2O1 (stereo not given) | inconclusive [inhibitor, partial curve, poor fit] | 
50 | Cc1ccc(-c2ccc(C)c(N)c2C)c(C)c1N |  | inactive: 4.9%
51 | CC(=O)c1c(C)[nH]c(C(=O)OCC(=O)NCc2ccc(Cl)cc2)c1C | inconclusive [inhibitor, single point] | 
52 | C/C(=N\NC(=O)c1nnn(-c2nonc2N)c1CN1CCOCC1)c1ccc(CC(C)C)cc1 |  | inactive: 29%
53 | COc1ccc(-c2[nH]c3ccccc3c2SCCN)cc1 | inconclusive [inhibitor, single point] | 
54 | Cc1cnc(C(=O)OCC(=O)Nc2cc(-c3cc(C)c(C)cc3C)nn2-c2ccccc2)cn1 | inconclusive [inhibitor, single point] | 
55 | CC(CCc1ccccc1)NC(=O)CSc1ccccc1 (stereo not given) |  | inactive: -18.6%
56 | CCN(CC)S(=O)(=O)c1ccc(OC)c(NC(=O)C2CC(=O)N(c3ccc4c(c3)OCCO4)C2)c1 (stereo not given) | inconclusive [inhibitor, partial curve] | 
57 | N#CCN1CCC2(O)CCCCC2C1c1ccc2c(c1)OCO2 (stereo not given) | inconclusive [inhibitor, full curve, poor fit] | 
58 | O=C(CN=C1NC(=O)C(c2ccccc2)(c2ccccc2)N1)NCc1ccc(F)cc1 |  | inactive: 6.23%
59 | COc1cc2cnc(-c3ccccc3)c(C(=O)c3ccc(F)cc3)c2cc1OC | inconclusive [inhibitor, partial curve] | 
60 | CN(C)c1nc(NC(C)(C)C)nc(NC(C)(C)C)n1 | active: 14.7 µM | 
61 | O=C(CCCOc1ccccc1)Nc1cccc(S(=O)(=O)N2CCCCCC2)c1 | inconclusive [inhibitor, single point] | 
62 | CCOc1ccc(NC(=O)c2cccc(OC(=S)N3CCC(C)CC3)c2)cc1 | inconclusive [inhibitor, single point] | 
63 | CC(=O)c1ccc(C(=O)NC2CC(C)(C)Cc3c2cnn3-c2ccccc2)cc1 (stereo not given) |  | inactive: -18.2%
64 | Cc1ccc(N(Cc2ccccc2)C(=O)c2cccc(S(=O)(=O)N3CCOCC3)c2)cc1 | active: 10.4 µM | 
65 | CC(OC(=O)c1ccc(CN2CCCC2=O)cc1)C(=O)Nc1ccc(Cl)cc1 (stereo not given) |  | inactive: -20.3%
66 | Nc1ncnc(SCc2c(F)cccc2Cl)n1 |  | inactive: -11.5%
67 | Cc1cc(C)nc(SCC(=O)Nc2ccc(S(=O)(=O)Nc3nccs3)cc2)n1 | inconclusive [inhibitor, single point] | 
68 | Cc1cc(C)c(NC(=O)CN(C)C(=O)CCC(=O)c2ccc(C)s2)c(C)c1 | inconclusive [inhibitor, partial curve, poor fit] | 
69 | Cc1ccc(NC(=O)CSc2nc3ccccc3c(=O)n2CCCC(=O)NCCCN2CCOCC2)cc1C | inconclusive [inhibitor, partial curve, poor fit] | 
70 | COc1ccc(NC(=O)CSc2nccn2Cc2ccccc2)c(OC)c1 |  | inactive: -8.44%
